In all, about 340,000 compounds went through this assay and about 6,900 (2%) were called active. No stated cut-off is given here; in the data, active means inhibition above about 30%; inactive means below that, where a call was filed. The entries are a selection whose mix differs from that of the whole data set. Entries without a call were filed so in the source.

This experiment concerns the target D(2) dopamine receptor (Homo sapiens) (UniProt P14416). In words: HTS Assay for Allosteric Antagonists of the Human D2 Dopamine Receptor: Primary Screen for Antagonists. Further: 0% is about no effect. Particulars: HEK293 TREx D2 cells, calcium flux, dopamine EC80; at 10 µM; stronger effect = higher value. In short, it runs like this: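 Compounds are added to dye-loaded, induced HEK293 T-REx cells coupled to calcium release via D2; after a 3 min kinetic read an EC80 dopamine stimulus is given and fluorescence is recorded for 3 more min.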
Chain of UniProt P14416 (P14416 whole entry, looked up): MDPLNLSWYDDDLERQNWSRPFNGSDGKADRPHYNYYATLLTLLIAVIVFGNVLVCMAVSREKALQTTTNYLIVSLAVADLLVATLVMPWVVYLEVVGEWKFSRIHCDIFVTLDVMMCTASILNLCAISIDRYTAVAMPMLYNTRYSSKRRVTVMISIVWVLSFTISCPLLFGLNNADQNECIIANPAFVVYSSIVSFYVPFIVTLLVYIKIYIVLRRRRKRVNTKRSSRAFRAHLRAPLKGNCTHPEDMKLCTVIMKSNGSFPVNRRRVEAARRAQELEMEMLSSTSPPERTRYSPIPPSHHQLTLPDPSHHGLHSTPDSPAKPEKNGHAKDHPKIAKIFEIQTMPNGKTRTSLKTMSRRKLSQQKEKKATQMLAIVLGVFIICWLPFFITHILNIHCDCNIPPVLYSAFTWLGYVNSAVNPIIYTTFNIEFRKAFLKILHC
With `O=C(NCCN1CCN(c2ccccc2Cl)CC1)Nc1ccccc1`, the inhibition (as a rule, the drop in the measured response relative to a control, in per cent) was active: 52.5%.

Consider `CC1CC(C)CN(CCOCCSc2ccccc2)C1` (stereo unspecified), for which the inhibition is active: 64.8%.

`Cc1ccc(C(=O)c2c(N)c(-c3nc(-c4ccc5c(c4)OCO5)cs3)c3ccccn23)cc1C`: the inhibition stood at 1.53%.

`Cc1cccc(N2CCN(C(=O)Cc3c(C(=O)O)c(C)cn3C)CC2)c1C`: the inhibition worked out at 25.3%. Regarding `Cc1ccc(C(=O)Nc2cc(-c3nc4ncccc4o3)ccc2C)c(C)c1`, the inhibition turned out to be 3.43%. The same measure for `COCc1nn2cc(-c3ccc(C)cc3)nc2s1`: -5.09%; for `CCc1ccc2oc(C(=O)Nc3cccc(Cl)c3C)cc(=O)c2c1`: -11.1%. As to `COc1ccc(NC(=O)CCCN2C(=O)C(c3ccccc3)Oc3cccnc32)c(OC)c1` (stereo unspecified), the inhibition came out at 10.1%. The same measure for `CC(C)CCN(Cc1ccco1)C(=O)c1cc2c(s1)-c1ccccc1OC2`: -17.1%. As to `CN(C)S(=O)(=O)c1cccc(NC(=O)c2ccc(OC(F)(F)F)cc2)c1`, the inhibition was active: 46.3%. Consider `O=C(COc1ccccc1)OCc1cc(=O)n2nc(C3CC3)sc2n1`, for which the inhibition came to 7.63%. In the case of `Cc1cc2c(cc1NC(=O)c1ccccc1C)n(C)c(=O)c(=O)n2C`, the inhibition was -10.7%. With `CCC(Cc1ccccc1)NC(=O)CN1C(=O)COc2ccc(S(=O)(=O)N3CCCCCC3)cc21` (stereo unspecified), the inhibition is -4.34%.

For `COc1ccc(CCNC(=O)CCCn2c(=O)c3cccn3c3ccccc32)cc1OC`, the inhibition is -4.43%. The same measure for `CCOC(=O)C1=C(O)C(=O)N(c2ccccc2)C1c1cccc([N+](=O)[O-])c1` (stereo unspecified): active: 33%; for `O=C(Cn1c(-c2ccco2)nc2ccccc21)N1CCCCC1`: active: 46.5%. As for `O=C(CCn1c(=O)sc2ccccc21)NCc1cccs1`, the inhibition was active: 32.2%. Consider `O=C(OCc1nnc(-c2ccccc2)o1)c1cc(S(=O)(=O)N2CCOCC2)c(Cl)cc1Cl`, for which the inhibition is active: 37.5%. Consider `CCOCCCNC(=O)C1CCN(C(=O)c2cc3sccc3n2C)CC1`, for which the inhibition was -6.1%. As for `Cc1cc(C)n(-c2nnc(C)n2NC(=O)c2cccc(Cl)c2)n1`, the inhibition was active: 46.8%. Consider `CCOc1ccccc1CNCCNC(=O)c1nonc1N`, for which the inhibition is -8.62%. Regarding `Cc1ccccc1Nc1sc(C(=O)c2ccccc2)c(N)c1C(=O)NCc1ccc(Cl)cc1`, the inhibition was -17.5%. `Cc1ccc2c(c1)c1c(c(=O)n(-c3ccccc3C)c(=O)n1CC(=O)N1CCCC1)n2C`: the inhibition is -7.02%.

On to `Cc1ccc2ncc3c(-c4ccc(F)cc4)nn(-c4cccc(F)c4)c3c2c1`, for which the inhibition is 2.16%. `COc1cc(OC)c(NC(=O)CC(c2cccs2)N2Cc3ccccc3C2=O)cc1Cl` (stereo unspecified): the inhibition stood at 7.55%. For the compound `Cc1ccc(Cn2cc(C(=O)c3ccc(F)cc3)c(=O)c3cc4c(cc32)OCCO4)cc1`, the inhibition is -24.6%.

With `CCc1ccccc1NC(=O)CSCc1cnn(-c2ccccc2)c1-n1cccc1`, the inhibition is -19.8%.

Turning to `COc1cccc(C(=O)N2c3nc(-c4ccco4)nn3C3(CCCCC3)[C@@H]3CCCC[C@@H]32)c1`, the inhibition was -5.09%. For the compound `CCc1nn(C(C)C(=O)N2CCN(c3cccc(C(F)(F)F)c3)CC2)c(=O)c2cc3occc3n12` (stereo unspecified), the inhibition was -2.39%.

For the compound `CC(CN(C)C)CN1c2ccccc2Sc2ccccc21` (stereo unspecified), the inhibition was active: 76.1%. As to `COc1cc(OC)cc(-c2nc3nc(C)c(CCC(=O)Nc4ccc(F)cc4F)c(C)n3n2)c1`, the inhibition was -14.7%. For `CCCNC(=O)c1c(C)nn(-c2cccc(C)c2)c1-n1cccc1`, the inhibition is -1.76%.

Regarding `Cc1ccccc1N1CCN(CCCOc2ccc3c(C)cc(=O)oc3c2)CC1`, the inhibition was active: 109%. The same measure for `CCOC(=O)C1CCN(S(=O)(=O)c2cc3c4c(c2)CC(=O)N4CCC3)CC1`: -25%; for `COc1ccc(CCNC(=S)NC2CCN(Cc3ccccc3)CC2)cc1`: active: 71.2%.

For the compound `CN(C)S(=O)(=O)n1cc(/C=C(\NC(=O)c2ccccc2Cl)C(=O)NCCCn2ccnc2)c2ccccc21`, the inhibition was -4%. On to `O=C(NCCc1ccccc1)C1(c2cccs2)CCOCC1`, for which the inhibition is -20.3%. For the compound `CCN(CC)CCNC(=O)c1nn(-c2ccc(OC)c(Cl)c2)c(=O)c2c1c1ccccc1n2C`, the inhibition was -6.79%.

With `O=C(CSc1nc2c(c(=O)[nH]1)CN(Cc1ccc(F)cc1)CC2)Nc1ccccc1Cl`, the inhibition came out at 16.3%. As to `O=C(NCCc1ccccc1Cl)c1ccc2c(c1)nc1n2CCOC1`, the inhibition was -12.3%. Turning to `O=C(NC1CC2CCCC(C1)N2Cc1ccccc1)c1cccc(Cl)c1` (stereo unspecified), the inhibition is active: 90.4%. The same measure for `Cc1ccc(C(=O)n2nc(-c3ccco3)nc2NCc2cccs2)cc1`: -0.365%; for `CCCn1nc(C(=O)Nc2ccc3nc(C)sc3c2)c2ccccc2c1=O`: active: 31%; for `C=CCn1c(SCC(=O)Nc2ccc(C(=O)OCC)cc2)nnc1-c1sc(N)nc1C`: active: 31.4%. `Cc1nc(N2CCOCC2)c2c(C(=O)NCCc3ccccc3)c(C)oc2n1`: the inhibition was -7.14%. Take `CCCCn1cc2c(c1-c1ccccc1Br)c(=O)n(C)c(=O)n2C`: the inhibition is 9.79%. Consider `Cc1ccc(C(=O)Nc2nc3ccc(S(=O)(=O)N4CCCC4)cc3s2)cc1`, for which the inhibition was found to be 3.95%. The same measure for `Cc1ccc(-c2nnc(SCC(=O)NC3CCCC3)nc2-c2ccc(C)cc2)cc1`: 1.76%; for `CCOc1ccc(NC(=O)CCC(=O)N2CC(C)Oc3ccc(C)cc32)cc1` (stereo unspecified): 7.21%; for `COc1ccc(CN2C(=O)c3oc4ccc(F)cc4c(=O)c3C2c2ccc(O)cc2)cc1` (stereo unspecified): 5.41%. As for `O=C(Nc1ccc(F)cc1F)C(Cc1ccccc1)N1Cc2ccccc2C1=O` (stereo unspecified), the inhibition was -22.7%. In the case of `COc1cccc(-n2c(-c3ccc(Cl)cc3)cc3c2CC(C)(C)CC3=O)c1`, the inhibition is -16.3%. Take `COc1ccc(C)cc1NC(=O)C1CCN(S(=O)(=O)c2c(C)noc2/C=C/c2ccco2)CC1`: the inhibition was 13.2%. With `O=C(CCC(=O)N1CC2CCCN2c2ccccc21)NCc1cccc(Cl)c1` (stereo unspecified), the inhibition came to 6.37%.

In the case of `Nc1c(C(=O)NCc2ccc(Cl)cc2Cl)nnn1Cc1ccc(Br)cc1`, the inhibition stood at 10.8%. On to `COc1ccc(OCC(=O)Nc2cc(-c3ccccc3F)nn2-c2ccccc2)cc1`, for which the inhibition was -27%. Take `Cc1ccc(S(=O)(=O)NCC2CCC(C(=O)NCc3ccc(F)cc3)CC2)cc1` (stereo unspecified): the inhibition stood at 5.43%. In the case of `CCc1ccc(CNC(=O)c2cc3cc(S(=O)(=O)N4CCCCC4)ccc3n2C)cc1`, the inhibition is 17%.

On to `COC(=O)CCNCCSc1nnc(-c2ccco2)n1Cc1ccccc1`, for which the inhibition is active: 32.9%. The same measure for `COc1cccc(-c2cn3c(n2)sc2cc(C(=O)NCCCc4ccccc4)ccc23)c1`: -2.06%; for `CSc1ccc(CNC(=O)C2CCCN(S(=O)(=O)N(C)c3ccc(F)cc3)C2)cc1` (stereo unspecified): 0.869%. Regarding `CCOc1ccc(CCNC(=O)CCCn2c(=O)c3cccn3c3cccnc32)cc1OCC`, the inhibition turned out to be 4.52%. Consider `CCc1ccc2c(c1)c(=O)c(S(=O)(=O)c1ccc(Cl)cc1)cn2CC`, for which the inhibition came out at 8.51%.

For `O=C(CC1(O)C(=O)N(CCc2ccccc2)c2ccc(Br)cc21)c1ccc(F)cc1` (stereo unspecified), the inhibition is 8.4%. For `Cc1nn(Cc2ccc(Cl)c(Cl)c2)c(C)c1NC(=O)c1noc2c1CCc1ccccc1-2`, the inhibition was 24.2%. With `COc1cccc(CNCCSc2nnnn2C)c1OCc1ccccc1`, the inhibition amounted to 2.4%.

Take `CCc1cc(C(=O)N2CCN(S(=O)(=O)c3ccc(Cl)cc3)CC2)sc1C`: the inhibition was active: 38.5%. Regarding `COC(=O)CC1Oc2ccccc2-n2cc(-c3ccc(C)cc3)nc21` (stereo unspecified), the inhibition came to 2.01%. Regarding `O=C(Cc1ccccc1)Nc1sc2c(c1C(=O)Nc1ccccc1)CCCCC2`, the inhibition is -12.9%. For `COc1cc(C2CC(=O)Nc3c2c(C)nn3-c2nc(C)cc(C)n2)cc(OC)c1O` (stereo unspecified), the inhibition was -4.68%.

As for `Cc1ccc(CSc2nnc(-n3c(=O)c(C#N)cc4c(=O)n5cccc(C)c5nc43)s2)cc1`, the inhibition worked out at 0.489%. The same measure for `COc1cccc(-c2nn3c(=O)cc(CN4CCN(S(=O)(=O)c5ccc(C)cc5)CC4)nc3s2)c1`: -5.21%; for `CSc1nc(=O)c2c(n1C)NC(=O)CC2c1ccccc1OC(C)C` (stereo unspecified): -6.12%; for `COc1ccc(-c2nc3ccccc3n3c(-c4cccc(C)c4)c4c(=O)n(C)c(=O)n(C)c4c23)cc1`: -5.25%. For `CNC(=S)NC1CC2CCCC(C1)N2Cc1ccc(C)cc1` (stereo unspecified), the inhibition was active: 81.4%.

Consider `COCCCn1c(=N)c(C(=O)NCC2CCCO2)cc2c(=O)n3cc(C)ccc3nc21` (stereo unspecified), for which the inhibition was -0.51%. The same measure for `Cc1ccc(Nc2c(-c3ccc(N(C)C)cc3)nc3nc[nH]n23)cc1`: -23.6%; for `Cc1ccc2c(=O)cc(C(=O)Nc3ccc(S(=O)(=O)N4CCC(C)CC4)cc3)oc2c1C`: -9.79%; for `CC(=O)c1ccc(S(=O)(=O)Nc2ccc(-c3ccc(N4CCCCCC4)nn3)cc2)cc1`: -20.9%. With `COC(=O)c1ccc(CN2CCc3ccc(NC(=O)c4ccncc4)cc3C2)cc1`, the inhibition was active: 34.6%. As to `Cc1ccc(-n2ncc(C(=O)NCCc3ccccc3)c2C2CCN(C(=O)OC(C)(C)C)CC2)c(C)c1`, the inhibition amounted to 2.6%. Consider `COc1ccccc1C(=O)N(CCN(C)C)c1nc2cc(C)cc(C)c2s1`, for which the inhibition was active: 38.1%. Turning to `COc1cccc(NC(=O)Cn2c(=O)cc(C)c3c(C)nn(-c4cccc(F)c4)c32)c1`, the inhibition came to 9.03%. Consider `CC1CCCCN1C(=O)Cn1c(=O)n(-c2ccc(Cl)cc2)c(=O)c2c3c(sc21)CCC3` (stereo unspecified), for which the inhibition was 10.4%. As for `CCN(CC)c1nc2c(-c3cccc(Br)c3)nnn2c2ccccc12`, the inhibition is -28.1%. For `COc1ccc(CNC(=O)c2ccc(NC(=O)N3CC4CCCN4c4ccccc43)cc2)cc1` (stereo unspecified), the inhibition is -9.17%.

`CC(C)n1cnc2c(N(C)c3ccccc3)nc(N(CCN(C)C)Cc3ccccc3)nc21`: the inhibition was active: 33.8%. The same measure for `COc1cccc(NC(=O)C2CCN(S(=O)(=O)c3cccc4nonc34)CC2)c1`: -2.34%; for `COc1cc(C(=O)OCc2cc(=O)n3nc(C4CCCCC4)sc3n2)cc(OC)c1OC`: 22.4%; for `CCOC(=O)c1cc(C)n(CC2CCC(C(=O)Nc3ccc(C(C)=O)cc3)CC2)c1C` (stereo unspecified): -12.3%. Under `COc1ccc(N2CCN(C(=O)c3cccc(-n4c(C)nc5cccnc54)c3)CC2)cc1` stands -1.52%.

`COc1cc2cc(CNc3ccccc3)c(=O)n(CC(=O)Nc3ccccc3)c2cc1OC`: the inhibition is 1.79%.

Regarding `CCCNS(=O)(=O)c1ccc2nc(NC(=O)c3ccc(F)cc3)sc2c1`, the inhibition was found to be 7.19%. As for `Cc1ccc2nc(N3CCN(c4ccccc4)CC3)c3nnnn3c2c1`, the inhibition worked out at 1.04%.

In the case of `O=C(NCCC1=CCCCC1)c1ccc2c(c1)N(Cc1ccccc1F)C(=O)c1ccccc1S2=O` (stereo unspecified), the inhibition was -11.4%. Take `CCc1cccc(-n2c(=O)c3cccnc3n2CC(=O)NCc2ccccc2)c1`: the inhibition is -4.55%.
